# The whole screen tested about 270,000 compounds, of which about 5,800 (2.1%) were called active. The shares of active, inactive and inconclusive entries below differ from those in the screen. The call rests on the fitted dose curve; in most records, active means well fitted inhibition curve with a large enough effect; inconclusive means small, poorly fitted or top-dose-only effect; inactive means flat fitted curve, though single readings scatter. Where the call is inconclusive, the potency comes from a doubtful curve fit.
# Target: Microtubule-associated protein tau (Homo sapiens) (UniProt P10636)
# Sequence of UniProt P10636 (P10636 whole entry, looked up): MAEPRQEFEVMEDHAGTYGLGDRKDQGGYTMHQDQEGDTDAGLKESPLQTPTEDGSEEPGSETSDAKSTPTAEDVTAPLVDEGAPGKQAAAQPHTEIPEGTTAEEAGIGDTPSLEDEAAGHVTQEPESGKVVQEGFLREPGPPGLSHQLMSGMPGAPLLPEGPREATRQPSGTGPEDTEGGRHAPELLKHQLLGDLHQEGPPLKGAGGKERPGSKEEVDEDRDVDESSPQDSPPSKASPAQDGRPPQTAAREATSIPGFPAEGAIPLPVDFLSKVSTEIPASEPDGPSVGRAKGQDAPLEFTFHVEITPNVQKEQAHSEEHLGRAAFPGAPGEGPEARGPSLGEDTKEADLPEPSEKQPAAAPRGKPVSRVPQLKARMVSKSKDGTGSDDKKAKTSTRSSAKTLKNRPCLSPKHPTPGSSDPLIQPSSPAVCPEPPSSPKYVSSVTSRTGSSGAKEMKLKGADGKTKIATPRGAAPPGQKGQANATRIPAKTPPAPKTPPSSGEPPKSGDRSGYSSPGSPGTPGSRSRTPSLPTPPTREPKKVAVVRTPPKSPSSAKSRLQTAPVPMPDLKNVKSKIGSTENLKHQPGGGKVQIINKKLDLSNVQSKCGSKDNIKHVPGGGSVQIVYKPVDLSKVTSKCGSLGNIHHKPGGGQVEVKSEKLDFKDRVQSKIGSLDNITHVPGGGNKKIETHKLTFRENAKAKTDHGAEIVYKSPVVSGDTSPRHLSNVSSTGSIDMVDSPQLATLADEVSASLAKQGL
# Test: qHTS for Inhibitors of Tau Fibril Formation, Thioflavin T Binding; further: nearly all actives have a fitted effect of over 55% in size
# Conditions: recombinant tau K18 P301L (four-repeat tau fragment), heparin-induced fibrillization, ThT fluorescence; series mostly up to 57.4 µM; activity, negative = inhibition: at the top concentration
# Outline: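 K18 P301L tau (15 uM + 0.24 uM Alexa 594-tagged), heparin 20 uM, NaOAc pH 7, 6 h 37 C; ThT 30 uM, 1 h RT, ex 450/em 510 nm.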
# On the % scale 0 is the no-effect control and ±100 the full control effect; potency means the concentration at half of the fitted maximal effect; tags describe the fitted curve by direction and shape.
Compound,Potency,"activity, negative = inhibition"
FC(F)(F)Oc1ccc(-c2cn3cccnc3n2)cc1,"inconclusive: 17.8 µM [inhibitor, partial curve]",–
Cc1ccc(/C=C(\C#N)c2nc(-c3ccc(-c4ccccc4)cc3)cs2)cc1,"inconclusive: 0.891 µM [inhibitor, full curve]",–
CC1=CC(C/C(C)=C/COc2ccc3ccc(=O)oc3c2)OC1=O (stereo not given),"inconclusive: 39.8 µM [inhibitor, single point]",–
COc1cc(OC)cc(C(=O)Nc2nc(-c3ccccc3)c(-c3ccccc3)o2)c1,"inconclusive: 17.8 µM [inhibitor, single point]",–
CCCCC/C=C\C/C=C\C/C=C\C=C\C(=O)CCCC(=O)O,inactive,–
CC(C)C[C@@H](CC(=O)N[C@@H](CCCN)CC(=O)N[C@@H]1CCCC[C@H]1C(=O)N[C@H](CC(=O)N[C@@H](CCC(=O)O)CC(=O)O)Cc1c[nH]c2ccccc12)NC(=O)[C@@H]1CNCC[C@H]1N,–,inactive: -9.25%
Clc1ccc(-c2ccc(C=Nc3ccc(N4CCOCC4)cc3)o2)cc1,"inconclusive: 25.1 µM [inhibitor, partial curve]",–
O=C(COC(=O)c1cncc(Br)c1)NCc1ccco1,–,inactive: 5.76%
COc1ccc(CCNC(=O)CSc2ccsc2[N+](=O)[O-])cc1OC,"inconclusive: 14.1 µM [inhibitor, partial curve]",–
COc1ccccc1-n1c(C)cc(C=O)c1C,–,inactive: -2.42%
Cc1csc(NC(=O)c2cc(C)nc3ccccc23)n1,–,inactive: -3.4%
COc1ccc(-c2nc(SCC(=O)Nc3ccc4c(c3)OCCO4)c(-c3ccc(F)cc3)[nH]2)cc1,–,inactive: -0.998%
COc1ccc(NC(=O)C2CCN(S(=O)(=O)c3ccc4c(c3)CCCC(=O)N4)CC2)cc1OC,–,inactive: 2.6%
COc1ccc(-c2nnc(NC(=O)C3=COCCO3)o2)cc1,–,inactive: 0.246%
CCOC(=O)c1cnc(Nc2nc3ccccc3o2)nc1CN1CCN(C)CC1,"inconclusive: 12.6 µM [inhibitor, partial curve, poor fit]",–
Cc1[nH]c2ccccc2c1-c1csc(NC(=O)CSCCO)n1,"inconclusive: 14.1 µM [inhibitor, partial curve]",–
COc1ccccc1N1CCN(C(=O)c2cc(CC(C)C)on2)CC1,–,inactive: -13.3%
Cc1ccc2nc(COc3ccccc3NC(=O)COc3ccc(F)cc3)cc(=O)n2c1,–,inactive: -6.19%
COc1cc(C)ccc1OCCCOc1ccccc1Cl,"inconclusive: 14.1 µM [inhibitor, partial curve]",–
CCCC(=O)NNc1c2ccccc2nc2ccccc12,"inconclusive: 39.8 µM [inhibitor, single point]",–
O=c1c2ccccc2[nH]c(=S)n1CCCN1CCOCC1,–,inactive: -8.63%
C/C(Cl)=C\Cn1c(O)c(N=NC(N)=S)c2ccccc21,"inconclusive: 15.8 µM [inhibitor, partial curve]",–
COc1ccc(-c2oc3ncn4nc(COc5cccc(C)c5C)nc4c3c2-c2ccc(OC)cc2)cc1,–,inactive: 1.12%

Compound,Potency,"activity, negative = inhibition"
COc1cc(Nc2nc(SCc3ccc(Cl)cc3)nc3ccccc23)cc(OC)c1,"inconclusive: 11.2 µM [activator, partial curve]",–
O=C(CSc1cn(CCNC(=O)c2ccccc2)c2ccccc12)NCc1ccco1,"inconclusive: 31.6 µM [inhibitor, partial curve]",–
COc1cc(NC(=O)/C=C/c2ccccc2[N+](=O)[O-])cc(OC)c1,"inconclusive: 20 µM [inhibitor, partial curve]",–
CC(C)C(C(=O)OCC(=O)c1cccc([N+](=O)[O-])c1)N1C(=O)[C@@H]2[C@H]3CC[C@H](C3)[C@@H]2C1=O (stereo not given in full),–,inactive: -5.23%
NC(=O)COc1ccc(-c2noc(COc3ccccc3[N+](=O)[O-])n2)cc1,"inconclusive: 3.55 µM [inhibitor, full curve]",–
CC12CCC(C(=O)NCc3ccccc3)(OC1=O)C2(C)C (stereo not given),–,inactive: 1.44%
CCOC(=O)c1c(-c2ccc(C)cc2)csc1NC(=O)c1cc(=O)c2cc(C)ccc2o1,active: 25.1 µM,–
Cc1ccccc1N1CCN(c2ncnc3scc(-c4cccs4)c23)CC1,"inconclusive: 17.8 µM [inhibitor, partial curve]",–
CSc1ccc(/C=C/C(=O)NC(=O)c2ccccc2O)cc1,"inconclusive: 7.94 µM [inhibitor, partial curve]",–
CC(C)n1c(O)c(N=NC(=O)c2ccccc2NS(=O)(=O)c2cccs2)c2ccccc21,"inconclusive: 5.62 µM [inhibitor, full curve]",–
C/C(=N\NC(=O)c1c(Cl)c(C)nn1C)c1ccc(NC(=O)c2ccncc2)cc1,"inconclusive: 1.58 µM [inhibitor, partial curve]",–
COC(=O)c1ccc(NC(=O)C(OC)c2ccccc2)cc1 (stereo not given),–,inactive: 1.55%
COc1ccc2c(c1)c(=O)oc1cc(OCC(=O)N3CCCC(C)C3)ccc12 (stereo not given),"inconclusive: 1.78 µM [inhibitor, full curve]",–
Cc1cc(C(=O)N/N=C/c2cccc([N+](=O)[O-])c2)c(C)n1-c1ccccc1,"inconclusive: 25.1 µM [inhibitor, single point]",–
N#C/C(=C\c1ccc(O)c(O)c1)C(=O)NCCCCc1ccccc1,active: 15.8 µM,–
Fc1ccc(NCc2nnc3n2CCCCC3)cc1Cl,–,inactive: 0.276%
N=c1n(CC(=O)c2ccc([N+](=O)[O-])cc2)c2ccccc2n1Cc1ccccc1Cl,"inconclusive: 5.62 µM [inhibitor, partial curve]",–
COc1ccc(-c2cc(C(=O)NN)[nH]n2)cc1,"inconclusive: 3.16 µM [inhibitor, single point]",–
CC(/C=C/c1ccccc1)=N\NC(=O)CSc1ccccn1,"inconclusive: 14.1 µM [inhibitor, partial curve]",–
CC(=O)c1ccc(NC(=S)N2CCC(Cc3ccccc3)CC2)cc1,"inconclusive: 10 µM [inhibitor, partial curve]",–
C=CCn1cccc(/C=C/C(=O)c2ccc(C(C)(C)C)cc2)c1=S,active: 20 µM,–
O=C(/C=C/c1ccc(Cl)cc1)Nc1ccc(N2CCOCC2)cc1,"inconclusive: 1.26 µM [inhibitor, full curve]",–

# Source: PubChem BioAssay AID1460 (National Center for Advancing Translational Sciences (NCATS), 2008)
